The whole screen tested about 150,000 compounds, of which about 540 (0.36%) showed an effect of 50% or more. This is one part of the list.

The subject of this test is Plasmodium falciparum. The test can be described thus: Primary screen in NF54 nanoGlo assay, in single point, at 2uM, 72h; a lower Z score goes with more inhibition. It is filed as functional, Erythrocyte. The following applies: timepoint 72 hour.
In general, % Inhibition refers to the change of the read-out against control, counted positive when it falls. Regarding `c1cc(Nc2ccc3nnnn3n2)cc(N2CCCCCC2)c1`, the “% Inhibition” value came out at 10% and the Z score is reported as -1.22.

As to `CN1CN(C(=O)c2snnc2C2CC2)CC1=O`, the “% Inhibition” value is listed as -10% and the Z score is given as 1.5.

For the molecule `O=C(CCc1nc2ccccc2c(=O)[nH]1)Nc1ccncc1`, the “% Inhibition” value is listed as -12% and the Z score turned out to be 1.65.

For `CC1CC(c2ccccc2)C(C)N1C(=O)Cn1cccn1` (stereo unspecified), the “% Inhibition” value is 2% and the Z score is on record as -0.39.

As to `N#Cc1cnc(NC[C@H]2CCCc3cccnc32)c(F)c1`, the “% Inhibition” value is on record as -15% and the Z score was determined as 2.44.

`O[C@H](COc1cccc2[nH]ccc12)Cn1nnc(-c2cccs2)n1`: the “% Inhibition” value was -12% and the Z score is reported as 1.22.

In the case of `Nc1nnc(-c2noc(-c3ccccc3)n2)o1`, the “% Inhibition” value is listed as -8% and the Z score came out at 0.91.

As to `CCn1ncc2cc(C(=O)N3CCC[C@H]3c3ncon3)c(C)nc21`, the “% Inhibition” value was -4% and the Z score stood at 0.78.

With `c1cc(CN2CCC(OC[C@H]3CCCO3)CC2)ccn1`, the “% Inhibition” value was -3% and the Z score is on record as 0.26.

On to `COCCc1noc(CNC(=O)[C@@H]2CCc3ccccc32)n1`, for which the “% Inhibition” value is -5% and the Z score worked out at 0.76.

In the case of `C[C@@H](CCc1cccc(F)c1)C(=O)NS(C)(=O)=O`, the “% Inhibition” value is on record as 16% and the Z score is recorded as -2.3.

For the molecule `Cc1c(C(=O)N2CCCC2)oc2ccc3c(c12)[C@@H](O)CC1(CCCCC1)O3`, the “% Inhibition” value came out at 2% and the Z score is -0.33.

For the molecule `Cc1c(Cl)cc(NC(=O)NCCO)cc1Cl`, the “% Inhibition” value was 6% and the Z score is given as -0.89.

For `CN(Cc1cnc(N(C)CC(=O)O)nc1)CC1CCCC1`, the “% Inhibition” value turned out to be 4% and the Z score is on record as -0.64.

For `CCC(C)(C)NC(=O)c1ccc(OC)cc1OC`, the “% Inhibition” value is given as -1% and the Z score is given as 0.14.

Take `CC(C)[C@H](OC(=O)n1ccnc1)C(=O)OC(C)(C)C`: the “% Inhibition” value was 39% and the Z score is reported as -5.02.

With `CCc1cccc(Nc2c(C(=O)N3CCCCCC3)cnc3nc(C)ccc23)c1`, the “% Inhibition” value is given as -7% and the Z score is 1.22.

Turning to `CCc1ccccc1C(=O)N(Cc1ccccn1)C1CCNCC1`, the “% Inhibition” value turned out to be 6% and the Z score was -0.92.

Regarding `Cc1cc(C)c(CN2CCC(N3CCC[C@H](C(=O)NC4CC4)C3)CC2)cc1C`, the “% Inhibition” value was -2% and the Z score is 0.36.

Regarding `CC[C@@H](CO)N1CCN(C(=O)C(C)(C)OC)CC1`, the “% Inhibition” value was -18% and the Z score was 2.28.

For the molecule `CCc1oc(C(=O)N(C)Cc2cc(COC)[nH]n2)cc1CN(CC)CC`, the “% Inhibition” value is reported as -1% and the Z score was 0.2.

With `O=C(c1csc2cncn12)N1CCCC12CCC2`, the “% Inhibition” value was -2% and the Z score was 0.44.

`COc1ccc(C(=O)N2CCCCC[C@@H]2CN2CCOCC2)cc1`: the “% Inhibition” value was -9% and the Z score was 1.48.

Regarding `O=C(NCc1ccc2c(c1)OCO2)N1CC(Oc2cccc(C(F)(F)F)n2)C1`, the “% Inhibition” value is listed as -6% and the Z score is listed as 1.06.

Consider `COc1ccccc1N1CCN(CC(=O)Nc2c3c(nc4ccccc24)N(c2cccc(C)c2)CC3)CC1`, for which the “% Inhibition” value is listed as 39% and the Z score is listed as -4.99.

In the case of `Cn1nccc1C(=O)N1CC[C@@H](n2c(=O)n(C)c3cccnc32)C1`, the “% Inhibition” value stood at 0% and the Z score is recorded as -0.09.

Take `CC(=O)NC[C@H](O)c1ccc(-c2ccco2)cc1`: the “% Inhibition” value was 1% and the Z score is reported as -0.1.

With `COc1ccccc1C(C)(C)c1noc(C2C[C@H]3C[C@@H](N)[C@H]3C2)n1` (stereo partly specified), the “% Inhibition” value came out at 11% and the Z score is given as -1.69.

`CCOC(=O)C1=C(C(=O)OCC)SC(=C2C(=S)C(C)(C)N(C(=O)CN3C(=O)c4ccccc4C3=O)c3c(OC)cccc32)S1`: the “% Inhibition” value was -8% and the Z score came to 1.36.

In the case of `Cc1ccc(C(=O)Nc2ccc(N3CCCN(C(=O)CC(C)C)CC3)c(C(=O)NCc3ccc(F)cc3)c2)cc1`, the “% Inhibition” value is recorded as 5% and the Z score was -0.78.

As to `C#CCC(NC(=O)N1CC(C)OCC1C)c1ccccc1` (stereo unspecified), the “% Inhibition” value was 6% and the Z score is on record as -0.95.

For `O=C(c1c(F)cccc1OC(F)F)N1CCCc2n[nH]cc21`, the “% Inhibition” value is listed as -2% and the Z score turned out to be 0.28.

As for `CCOc1ccccc1CNC(=O)c1nc(Nc2ccccc2)c2ccccc2n1`, the “% Inhibition” value was found to be 1% and the Z score was -0.22.

In the case of `CCN(Cc1ccc2ccccc2n1)C(=O)Cc1cc(C)on1`, the “% Inhibition” value is reported as 0% and the Z score stood at 0.02.

Consider `CO[C@H]1CCN(c2ccc(NC(=O)CCc3c(Cl)cccc3Cl)cc2)C1`, for which the “% Inhibition” value was -17% and the Z score is 2.18.

For the molecule `O=C1N[C@H]2CCC[C@@H]1CN(Cc1ccc(CN3CCCCC3)s1)C2`, the “% Inhibition” value amounted to 0% and the Z score was found to be 0.06.

As to `Cc1cc(C(N)=O)c(-c2cccc(C(=O)N[C@H]3CCC(=O)N(C)C3)c2)nc1C`, the “% Inhibition” value is listed as -22% and the Z score was found to be 1.96.

`O=C(Cc1ccccc1F)N1CCc2[nH]nc(C(=O)N3CCCC3)c2C1`: the “% Inhibition” value was -5% and the Z score is 0.82.

As to `CCn1cc(-c2ccc(N3CCOCC3)cc2)cc1C#N`, the “% Inhibition” value is given as -4% and the Z score was 0.63.

Turning to `COC(=O)c1sc(NCC2CC3CCCC3O2)nc1C` (stereo unspecified), the “% Inhibition” value is -18% and the Z score amounted to 2.09.

As to `Cc1ccoc1CNC(=O)N1CC(N2CCOCC2)CC1C` (stereo unspecified), the “% Inhibition” value is -9% and the Z score is given as 1.64.

For `Cc1noc(C)c1CO[C@H]1CCOC[C@H]1NC(=O)c1ccnnc1`, the “% Inhibition” value is on record as -7% and the Z score turned out to be 1.09.

For the molecule `Cn1cnc([C@H]2CN(C(=O)NC(C3CCC3)C3CCC3)C[C@@H]2N)c1`, the “% Inhibition” value was -2% and the Z score amounted to 0.43.
